According to PubChem BioAssay AID1745853 (National Center for Advancing Translational Sciences (NCATS), 2022):
Some of the results follow. Further columns of the screen follow, without active or inactive calls. Peptide text beside a SMILES is read from it. * marks the point of attachment. PhAc = O=C(Cc1ccccc1)*

Legend:
Test in all cases: Primary Screen for Target Class Profiling of Small Molecule Inhibitors of Methyltransferases
[1] = target: Glycine N-methyltransferase (Homo sapiens) (UniProt Q14749); details: purified enzyme, MTase-Glo SAH luminescence; measured here: GNMT inhibition; at 40 µM; stronger effect = lower value
Summary of the method: (§1)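 Each enzyme was reacted with SAM and its substrate, with compounds tested once at 40 uM; SAH formed was read by MTase-Glo luminescence.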

[2] = target: Guanidinoacetate N-methyltransferase (Homo sapiens) (UniProt Q14353); details: purified enzyme, MTase-Glo SAH luminescence; measured here: GAMT inhibition; at 40 µM; stronger effect = lower value
Summary of the method: as §1

[3] = target: Histamine N-methyltransferase (Homo sapiens) (UniProt P50135); details: purified enzyme, MTase-Glo SAH luminescence; measured here: HNMT inhibition; at 40 µM; stronger effect = lower value
Summary of the method: as §1

[4] = target: Nicotinamide N-methyltransferase (Homo sapiens) (UniProt P40261); details: purified enzyme, MTase-Glo SAH luminescence; measured here: NNMT inhibition; at 40 µM; stronger effect = lower value
Summary of the method: as §1

[5] = target: Phenylethanolamine N-methyltransferase (Homo sapiens) (UniProt P11086); details: purified enzyme, MTase-Glo SAH luminescence; measured here: PNMT inhibition; at 40 µM; stronger effect = lower value
Summary of the method: as §1
% is scaled to controls: 0 for no effect and ±100 for the full control effect.

Compound	activity change, negative = inhibition [1] [%]	activity change, negative = inhibition [2] [%]	activity change, negative = inhibition [3] [%]	activity change, negative = inhibition [4] [%]	activity change, negative = inhibition [5] [%]
CCOC(=O)CNC(=O)[C@@H]1CCCN1C(=O)Cc1ccccc1 (PhAc-Pro-Gly-OEt)	-9.39	-12.5	-1.62	-25.5	-2.69
CN1C(=O)c2cc(C(=O)NCc3ccccc3F)nn2CC1(C)C(=O)NCc1ccccc1 (stereo not drawn)	-1.43	4.02	3.74	-9.01	-1.9
CCOC(=O)[C@@H]1CN([S+](=O)([O-])Cc2ccccc2)[C@H]2c3ccc(OC)cc3O[C@@H]12	-6.05	-4.62	-1.95	-10.7	-2.63
COC(=O)C1=CO[C@@H](O[C@@H]2O[C@H](CO)[C@@H](O)[C@H](O)[C@H]2O)[C@@H]2[C@@H](C(=O)OC)[C@@H](O)C(O)[C@H]12 (stereo partly drawn)	-2.72	-4.38	-0.933	-10.9	0.186
CCN(Cc1ccccc1)c1nc2c(S(=O)(=O)c3ccccc3)nnn2c2ccccc12	0.216	0	2.51	-2.25	0.767
CC(C)CNC(=O)c1ccc2c(=O)n(C(C)C)c3nn(CC(=O)c4cccc(Cl)c4)c(=O)n3c2c1	6.1	1.96	8.96	1.02	5.08
CCC(C)NC(=O)Cn1nc2n(C)c(=O)c3ccc(C(=O)NC4CCCC4)cc3n2c1=O (stereo not drawn)	0.92	0	6.74	-2.7	4.02
O=C1N=C(O)CN1/N=C/c1ccc(-c2ccc([N+](=O)[O-])cc2)o1	-11.3	11	7.37	-3.08	0.539
Cc1nc(C)c(-c2ccc(C3CCC(CC(=O)O)CC3)cc2)nc1C(N)=O (stereo not drawn)	-8.54	-17.2	-5.85	-22.5	-19.7
COc1cc(/C=C/C(=O)O[C@H]2[C@H](O)[C@@H](CO)O[C@@]2(CO)O[C@H]2O[C@H](COC(=O)c3ccc(O)cc3)[C@@H](O)[C@H](O)[C@H]2O)cc(OC)c1OC	0.846	6.48	2.23	-7.82	4.45
O=S(=O)(c1cccc(-c2nc(-c3ccccc3)no2)c1)N1CCN(c2ccc(Cl)cc2)CC1	-3.86	-1.91	-4.98	-10.3	-10.6
Cc1cc2c(cc3n2CC(C)(C(=O)NC2CCCCCCC2)N(CCc2ccccc2)C3=O)o1 (stereo not drawn)	1.67	0	8.85	6.03	-1.24
CCCCN1C(=O)c2cc(C(=O)Nc3ccc(C)c(F)c3)nn2CC1(C)C(=O)NC1CCCC1 (stereo not drawn)	0.794	0	-29	-1.62	0.419
Cc1ccc(C)c(N2C(=O)c3cc4sccc4n3CC2(C)C(=O)NC2CCCCC2)c1 (stereo not drawn)	-8.87	3.37	-12.8	2.57	0.202
CCc1ccc(N2C(=O)c3cc4occc4n3CC2(C)C(=O)NC2CCC(C)CC2)cc1 (stereo not drawn)	-10.3	0.248	-5.42	-9.41	-17.4
O=C(CCc1cc(=O)[nH]o1)N[C@H](C1CCNCC1)C1CC(O)C1 (stereo partly drawn)		4.75		-8.93	-1.71
O=S(=O)(c1cnc[nH]1)N1CCC(c2nc(CCOCC3CC3)no2)C1 (stereo not drawn)	-0.806	1.94	1.88	-2.84	4.02
COc1ccc(CNC(=O)Cn2ccc3cc(S(=O)(=O)N4CCCC4)ccc32)cc1OC	-4.95	5.75	1.53	-13.4	-0.895
CC1CCC(NC(=O)C2c3cccn3CC(=O)N2CCC2=CCCCC2)CC1 (stereo not drawn)	-1.16	0	0.434	1.42	-3.46
Fc1ccc(-c2nnn3c2nc(N2CCCC2)c2ccccc23)cc1	2.52	0	9.19	10.7	1.13

Compound	activity change, negative = inhibition [1] [%]	activity change, negative = inhibition [2] [%]	activity change, negative = inhibition [3] [%]	activity change, negative = inhibition [4] [%]	activity change, negative = inhibition [5] [%]
COc1cc(OC)nc(N2C[C@H]3OC(=O)N(Cc4ccccc4OC)[C@H]3C2)n1	-0.939	-1.8	0.982	-4.18	0.936
CCC(=O)OCC(=O)[C@@]1(OC(=O)CC)[C@@H](C)C[C@H]2[C@@H]3CCC4=CC(=O)C=C[C@]4(C)[C@@]3(F)[C@@H](O)C[C@@]21C	4.19	7.69	4.28	-16.1	-2.85
CC1=C2C3OC(=O)C(C)C3(O)CCC2(C)CCC1O (stereo not drawn)	6.92	5.34	10.2	-7.32	3.4
Cc1cc(-c2nc3ncccc3o2)ccc1NC(=O)COc1ccc(C(C)(C)C)cc1		-8.05		-21.2	-1.35
CCOc1ccc(N2C(=O)CSc3c(c4ccccc4n3C)C2C(=O)NCCCOC(C)C)cc1 (stereo not drawn)	7.43	0	0.756	1.29	6.29
CNS(=O)(=O)CC1CCC(N(C)c2ncnc3[nH]ccc23)CC1 (stereo not drawn)	-2.9	-7.21	4.85	-38.3	-59.3
COCCCNC(=O)c1ccc(Cn2c(=O)c3ccccc3n(Cc3ccc(C(C)C)cc3)c2=O)cc1	-6.24	-8.04	11.1	-22.7	1.71
COc1ccc(OC)c2c1cc1n2CC(C)(C(=O)NC2CCCC2)N(Cc2ccccc2)C1=O (stereo not drawn)	7.34	0	8.56	9.08	3.52
CC1CCC2(C)C(CC(O)C(O)C23CO3)C1(C)CCC1=CC(O)OC1=O (stereo not drawn)	-8.13	-9.27	6.58	-21	-5.56
Cc1ccc(CNC(=O)CSc2nnc3n(Cc4ccc(C)cc4)c(=O)c4ccccc4n23)cc1	1.33	3.02	9.46	2.88	1.03
O=C(c1noc2c1CCCC2)N1CCOc2ccc(CN3CCN(c4ccccn4)CC3)cc2C1	-0.551	1.94	0.538	2.25	8.79
COc1ccccc1C(=O)N1CC(N(C)c2ccccc2C)C1	-1.19	-4.19	-1.09	-13.2	-2.4
CC(=O)N(C)C1(c2ccccc2)CCN(CCC[C@]2(c3ccc(Cl)c(Cl)c3)CCCN(C(=O)c3ccccc3)C2)CC1	-6.28	-11	-28.4	-78.6	-16.9
O=C([C@@H]1CCCN(c2ccc3[nH]c(C4(n5cc(Cl)cn5)CC4)nc3n2)C1)N1CCCC1	-8.57	-11.1	-63.6	-30.1	-19.9
CC(=O)NC[C@@H]1C=C(C)[C@H](Cc2nnc(-c3cncn3C)o2)C[C@H]1C(C)C	-6.4	-6.95	-5.23	-11.8	-31.5
CC(C)NC(=O)c1ccc2c(=O)n(Cc3ccccc3)c3n[nH]c(=O)n3c2c1	-11.5	0	0.41	-18.1	-13.8
COc1ccc(-c2cc(C(=O)NCc3cccnc3)c3c(c2)N(C)CCO3)cc1OC	-37.2	-20.2	-60	-26.5	-18.2
O=C(Nc1cccc([N+](=O)[O-])c1)c1cccc(S(=O)(=O)N2CCCCCC2)c1	-2.83	2.42	2.12	-23.8	-11.4
CC1=NS(=O)(=O)N(CCc2ccccc2)C=C1C(=O)O	1.24	1.67	2.3	2.94	13.6
Cc1ccc(C)c(N2CCN(CCCNC(=O)CCc3nnc4n(C)c(=O)c5ccccc5n34)CC2)c1	-4.68	2.41	-2.14	-18.7	-5.76

Compound	activity change, negative = inhibition [1] [%]	activity change, negative = inhibition [2] [%]	activity change, negative = inhibition [3] [%]	activity change, negative = inhibition [4] [%]	activity change, negative = inhibition [5] [%]
CCOC(=O)c1cc2n(n1)CC(C)(C(=O)NC1CCCCC1)N(c1ccccc1CC)C2=O (stereo not drawn)	6.08	0	-6.39	4.55	5.74
CC(NCCCc1cccc(C(F)(F)F)c1)c1cccc2ccccc12 (stereo not drawn)	1.35		-0.187		
COc1ccc(-c2n[nH]n3c2nc(=O)c2ccc(C(=O)NC4CCCCC4)cc23)cc1	1.51	0	0.166	5.61	1.53
C[N+](C)(C)CCOC(N)=O	12.1	11.3	12.6	-4.89	-2.62
CC(C)c1cc(CNc2nc(Nc3cc(C4CC4)[nH]n3)cc(N3CCN(C)CC3)n2)on1	-67.9	2.06	-61.2	-23.5	2.57
CCCCc1nn(CC(=O)N2CCCC2c2nc(C3CC3)no2)c(=O)n1CC (stereo not drawn)	-6	-6.28	-2.76	-10.7	-12
OC[C@H]1O[C@H](n2cnc3c(N[C@H]4CCC[C@@H]4O)ncnc32)[C@H](O)[C@@H]1O	10.9	19.7	10.4	-0.268	7.94
Cc1cccn2c(CC(=O)N3CCn4nc(CO)cc4C3)cnc12	-8.81	-10.9	-12.8	-8.75	3.71
CC(C)Cn1c(=O)c2ccc(C(=O)NC(C)C)cc2n2c(SCc3ccc(F)cc3)nnc12	-3.17	-10.7	5.23	-11.4	-6.11
CC(=O)N(O)CCCCCN1C(=O)CCC1=O	5.28	7.36	11	-14.7	6.04
CC(C)c1cc(C(C)C)c(CC(=O)NS(=O)(=O)Oc2c(C(C)C)cccc2C(C)C)c(C(C)C)c1	-18.1	-33.4	-0.604	-46.9	-16.2
CC(C)(C)NC[C@H](O)COc1cccc2c1CCCC2=O		7.19		-8.77	4.6
CCc1ccccc1N1C(=O)c2cc(-c3ccc(OC)cc3)nn2CC1(C)C(=O)NCc1ccccc1OC (stereo not drawn)	3.45	0	5.31	7.25	0.082
Cc1cc2[nH]c(=O)[nH]c2cc1S(=O)(=O)Nc1cccc(Cl)c1	-4.03	6.15	-1.69	-12.8	-5
CCCCCCCCCCCCCCCc1cccc(O)c1C(=O)O	-22.3		-1.13	-14.8	27.4
Cc1nc(C)c(C(=O)Nc2nn(Cc3ccccc3)c3cccc(OC(C)C)c23)o1	-21.2	-17.3	-17.9	-31.6	-15.7
O=C(NNc1nc2cc(F)ccc2n2cccc12)c1cnccn1	2.69	6.31	9.38	-15.3	4.07
CC(C)Oc1ccc(CNC(=O)c2cc3n(n2)CC(C)(C(=O)NC2CCCC2)N(C)C3=O)cc1 (stereo not drawn)	-0.901	3.45	3.19	-2.01	-6.34
CN1CCN(C(c2ccc(Cl)cc2Cl)c2sc3nc(-c4ccco4)nn3c2O)CC1 (stereo not drawn)		5.83		-11.5	1.05
CC1(C)CN(C(=O)c2ccc(Oc3ccccc3)o2)CC1(C)O (stereo not drawn)	-6.04	-3.05	-1.11	-8.42	-12.2
